In the supplement of paper PMC9446081:
Screen size: about 39,000 compounds; about 220 (0.56%) showed activity. This is one part of the list.

System: Escherichia coli K-12 BW25113
Test: relative growth (OD600 normalised to plate interquartile mean) (fraction); higher = less growth inhibition, active = 0.2 or less
Details: 50 µM; LB; incubation time: overnight (16-24 h)
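Note: static incubation at 37 °C against the wild-type strain, values averaged over two biological replicates.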

SMILES | relative growth
C[C@@H]1CN([C@@H](C)CO)C(=O)c2cccc(NC(=O)NC3CCCCC3)c2O[C@@H]1CN(C)C(=O)Nc1ccc(C(F)(F)F)cc1 | inactive: 0.975
NC(CC(=O)N1CCn2c(nnc2C(F)(F)F)C1)Cc1cc(F)c(F)cc1F.O.O=P(O)(O)O (stereo not given) | inactive: 0.87
COCC#Cc1ccc([C@H]2[C@H]3CN(C(=O)c4ccncc4)CC(=O)N3[C@H]2CO)cc1 | inactive: 1.01
CC(=O)NCc1c(I)c(NC(C)=O)c(I)c(C(=O)O)c1I | inactive: 0.978
Nc1ncnc2c1ncn2C1OC(CO)C(O)C1O (stereo not given) | inactive: 1.16
C[C@@H]1CN([C@@H](C)CO)C(=O)c2cccc(NC(=O)CCCCCC(=O)Nc3ccccc3N)c2O[C@@H]1CN(C)S(=O)(=O)c1cn(C)cn1 | inactive: 0.984
C[C@@H]1CCCCO[C@H](CN(C)C(=O)Nc2ccc(F)cc2)[C@@H](C)CN([C@@H](C)CO)C(=O)c2cc(NS(=O)(=O)c3ccccc3)ccc2O1 | inactive: 1.03
O=C(CCCCCCC(=O)Nc1ccc([C@H]2O[C@@H](CSc3nc(-c4ccccc4)c(-c4ccccc4)o3)C[C@@H](c3ccc(CO)cc3)O2)cc1)NO | inactive: 0.941
COc1ccccc1-c1cnc2c(c1)C(=O)N([C@H](C)CO)C[C@H](C)[C@@H](CN(C)C(=O)c1ccncc1)O2 | inactive: 0.985
Nc1cncnc1 | inactive: 0.993
C[C@H]1CN([C@@H](C)CO)C(=O)c2cc(NC(=O)Nc3ccc(C(F)(F)F)cc3)ccc2O[C@@H]1CN(C)S(=O)(=O)c1ccc(Cl)cc1 | inactive: 1.01
CC1(C)C(=O)C2CC3(O)C4=CC(=O)OC(c5ccoc5)C4(C)CCC3C(C)(C2=O)C1CC(=O)O (stereo not given) | inactive: 0.979
C[C@H](CO)N1C[C@H](C)[C@H](CN(C)C(=O)Nc2ccccc2)OCCCC[C@H](C)Oc2ccc(NC(=O)Nc3ccccc3)cc2C1=O | inactive: 1.03
Cc1noc(C)c1NC(=O)Nc1ccc2c(c1)CC(=O)N([C@@H](C)CO)C[C@H](C)[C@@H](CN(C)Cc1ccc(-c3ccccc3)cc1)O2 | inactive: 0.957
C/C=C/c1ccc2c(c1)O[C@@H](CN(C)S(=O)(=O)c1ccc(F)cc1)[C@@H](C)CN([C@H](C)CO)S2(=O)=O | inactive: 0.975
COc1ccc(NC(=O)N(C)C[C@H]2OCCCC[C@H](C)Oc3ccc(NC(=O)Nc4ccc(C(F)(F)F)cc4)cc3C(=O)N([C@@H](C)CO)C[C@@H]2C)cc1 | inactive: 1.01
C[C@@H]1CN([C@H](C)CO)C(=O)Cc2cc(NC(=O)Cc3cn(C)c4ccccc34)ccc2O[C@@H]1CN(C)CC1CCCCC1 | inactive: 1
C[C@H](CO)N1C[C@H](C)[C@H](CN(C)S(=O)(=O)c2ccccc2)Oc2ncc(C#CCN(C)C)cc2C1=O | inactive: 1.01
C[C@@H]1CN([C@H](C)CO)C(=O)Cc2cc(NC(=O)Nc3cccc4ccccc34)ccc2O[C@H]1CN(C)Cc1ccc2c(c1)OCO2 | inactive: 0.967
OC[C@@H](O)[C@@H](O)CO | inactive: 1.02

SMILES | relative growth
C[C@H]1CN([C@@H](C)CO)C(=O)c2cc(NS(C)(=O)=O)ccc2O[C@H]1CN(C)S(=O)(=O)c1cccs1 | inactive: 1.01
C[C@H]1C/C(=C\N(C)C)C(=O)C1=O | inactive: 1.03
C[C@H](CO)N1C[C@H](C)[C@@H](CN(C)Cc2ccc(C(=O)Nc3ccccc3N)cc2)Oc2ccc(NC(=O)CCN3CCOCC3)cc2CC1=O | inactive: 1.02
O=C(Nc1cc(C(F)(F)F)ccc1-n1cnc2ccccc21)c1ccc(S(=O)(=O)N2CCCC2)cc1 | inactive: 0.937
O=C(NC1CCN(CCCCC2(C(=O)NCC(F)(F)F)c3ccccc3-c3ccccc32)CC1)c1ccccc1-c1ccc(C(F)(F)F)cc1 | inactive: 1.05
N=C(N)NCCC[C@H](N)C(=O)NCC(=O)N[C@@H](CC(=O)O)C(=O)N[C@@H](CO)C(=O)O | inactive: 0.981
C[C@@H]1CN([C@H](C)CO)C(=O)c2cc(NC(=O)Nc3ccc(C(F)(F)F)cc3)ccc2O[C@H]1CN(C)C(=O)Nc1ccccc1 | inactive: 1.03
CN1C(=O)c2cc(NC(=O)c3ccc(F)c(F)c3)ccc2OC[C@H]2O[C@@H](CC(=O)N3CCOCC3)CC[C@@H]21 | inactive: 0.988
NCC[C@H]1CC[C@H](NC(=O)C2CCCCC2)[C@H](CO)O1 | inactive: 1.01
CC1(CO)COC1 | inactive: 0.994
Cc1noc(C)c1S(=O)(=O)Nc1cccc2c1O[C@H](CN(C)Cc1ccc(C(=O)O)cc1)[C@H](C)CN([C@H](C)CO)C2=O | inactive: 1
C[C@H]1CN([C@@H](C)CO)C(=O)CCCn2cc(nn2)CO[C@@H]1CN(C)S(=O)(=O)c1ccc2ccccc2c1 | inactive: 0.998
CO/N=C(\C(=O)N[C@@H]1C(=O)N2C(C(=O)O)=C(CSc3nnnn3C)CS[C@H]12)c1csc(N)n1 | active: 0.0456
COCC#Cc1cnc2c(c1)C(=O)N([C@@H](C)CO)C[C@H](C)[C@H](CN(C)C(=O)CCN1CCCCC1)O2 | inactive: 1.01
C[C@H]1CN([C@@H](C)CO)C(=O)c2cc(NS(=O)(=O)c3ccc(F)cc3)ccc2O[C@H]1CN(C)S(=O)(=O)c1ccccc1 | inactive: 0.995
C[C@@H]1CCCCO[C@H](CN(C)S(=O)(=O)c2ccc(Cl)cc2)[C@H](C)CN([C@H](C)CO)C(=O)c2cc(NC(=O)CCC(F)(F)F)ccc2O1 | inactive: 0.973
COc1cccc(S(=O)(=O)N[C@H]2CC[C@@H](CCn3cc(-c4ccccc4OC)nn3)O[C@H]2CO)c1 | inactive: 1
CO[C@H]1O[C@H](CO)[C@@H](OC(=O)Nc2ccc(Oc3ccccc3)cc2)[C@H](OC(=O)Nc2ccccc2)[C@H]1OC(=O)Nc1ccccc1 | inactive: 1.03
C[C@@H]1CCCCO[C@H](CN(C)Cc2ccc(Cl)c(Cl)c2)[C@@H](C)CN([C@@H](C)CO)C(=O)c2cc(N(C)C)ccc2O1 | inactive: 0.984
Cc1noc(C)c1NC(=O)Nc1ccc2c(c1)C(=O)N([C@@H](C)CO)C[C@@H](C)[C@@H](CN(C)C(=O)NC1CCCCC1)OCCCC[C@@H](C)O2 | inactive: 0.985
